PubChem BioAssay AID720542 (National Center for Advancing Translational Sciences (NCATS), 2013)
Out of some 360,000 compounds screened, about 740 (0.21%) were called active. This list was built around the results that the source calls inconclusive (neither active nor inactive); the mix of calls is not that of the screen. The call rests on the fitted dose curve; in most records, active means well fitted inhibition curve with a large enough effect; inconclusive means small, poorly fitted or top-dose-only effect; inactive means no such curve, though single readings can be large or run the other way. No potency is given beside an inconclusive call; the fits are too rough.

test system: Plasmodium falciparum AMA1 (3D7) - RON2 peptide interaction; assay: qHTS for Inhibitors of AMA1-RON; Towards Development of Antimalarial Drug Lead: Primary Screen; settings: AlphaScreen AMA1-biotinylated RON2 peptide binding; series mostly up to 58.2 µM; further: nearly all actives have a fitted effect of over 45% in size
Description: Plasmodium, the causative agent of malaria, is one of the world's deadliest parasitic diseases. Currently there is no vaccine available and there is widespread resistance to common anti-malarial drugs. This warrants novel, alternative approaches for developing improved therapy. During infection, one such essential interaction is between two parasite proteins, the apical membrane antigen1 (AMA1) that is translocated onto the merozoite surface and the rhoptry neck protein 2 (RON2), which is transferred to the red blood cells (RBC) membrane during invasion (Besteiro et.al., 2009). Recently, the Miller lab has shown that the interaction between AMA1 and RON2 is essential for junction formation of the parasite with the host cell (Srinivasan et.al., 2011). The binding of the RON2 peptide to the hydrophobic pocket in AMA triggers the formation of the moving junction which provides a firm anchor for the parasite to pull itself into the RBC using its actin-myosin motor; an irreversible step that commits the parasite for invasion. Only one AMA1 and RON2 genes exists in Plasmodium and there are no alternate pathways. Moreover, the region corresponding to RON2 peptide is conserved in all P. falciparum isolates for which sequences are available. The key residues in the AMA1 hydrophobic pocket that binds RON2 are also conserved and indicate a functional constraint governing this essential step in invasion since a short RON2 peptide (RON2L) corresponding to the binding region on AMA1 is sufficient to compete with the native RON2 protein and inhibits invasion (Tonkin et.al, 2011). Therefore, developing small molecule inhibitors of this interaction offers a promising target opening a new arena for anti-malarial therapeutics drug design.
In collaboration with the Miller lab, a quantitative High Throughput Screen using the AlphScreen technology was developed using a recombinant his-tagged AMA1 and a biotinylated RON2 peptide. This fluorescent screen was assayed against the NIH Molecular Libraries Small Molecule Repository (MLSMR). Inhibition of this protein-protein interaction is the desired outcome of this assay. However, due the limitations of this AlphaScreen assay, a large number of artifacts were observed. An AlphaScreen counterscreen was run to identify the true inhibitors, triage compound activity, and weed out false positives.
NIH Chemical Genomics Center [NCGC]
NIH Molecular Libraries Probe Centers Network [MLPCN]
Assay Submitter (PI): Louis Miller, National Institute of Allergy and Infectious Disease (NIAID)
Two microliters of his-tagged AMA1 3D7 allele protein (final concentration 25 nM) was dispensed into a 1,536-well assay plate. Small molecules and positive control peptides were pin-transferred (23 nL or 46 nL) via Kalypsys pin-tool equipped with a 1,536-pin array, resulting in final compound and peptide concentration ranges of 91.5 nM - 57.2 µM, and 15.6 nM - 2.00 µM, respectively. Unlabeled RON2 peptide or R1 peptide ([…]) that specifically binds the 3D7 AMA1 was used as a positive control that inhibited the binding of RON2L to AMA1. After 15 minutes incubation, 1 uL of biotinylated RON2 peptide (final concentration 25 nM) or buffer were dispensed and the assay plate was incubated for an additional 30 minutes at room temperature and protected from light. This was followed by an addition of 1 uL mixture of donor and acceptor beads (10 ug/mL final concentrations for each). The plates were incubated for 30 min at room temperature and read using the EnVision(R) plate reader (PerkinElmer). Maximum inhibition response was normalized to the positive control signal while no inhibition response was normalized to the DMSO treated wells.
Potency means the concentration at half of the fitted maximal effect; tags describe the fitted curve by direction and shape.

Compound	Potency
COc1ccccc1N1CCN(Cc2ccc(SC)cc2)CC1	active: 20 µM
Cc1csc2ncnc(NNC(=O)c3ccc(Cl)cc3)c12	inactive
Cc1cc(-c2nnc(-c3cccc(Cl)c3)o2)no1	inactive
O=C(O)c1nccnc1C(=O)Nc1ccc(Cl)cc1Cl	inactive
CN(C)c1ccc(C=c2c3ccccc3n3c2cc(-c2ccccc2)[n+]3C)cc1	active: 31.6 µM
Cc1ccc(C(=O)c2cc3c(cc2N)OCCO3)cc1	inconclusive [inhibitor, single point]
COc1cc(Br)c(-c2sc(Nc3ccccc3)n[n+]2-c2ccc(F)cc2)cc1OC	inactive
CCn1ccnc1CN1CCN(CC(C)C)C(CCO)C1 (configuration not stated)	inactive
CSc1ccc(COC(=O)c2cc([N+](=O)[O-])ccc2N2CCOCC2)cc1	inconclusive [inhibitor, partial curve, poor fit]
COc1ccc(C(c2nnnn2-c2ccc(OC)cc2)N2CCN(C/C=C/c3ccccc3)CC2)cc1 (configuration not stated)	inconclusive [inhibitor, partial curve]
O=c1c2cc(N3CCOCC3)ccc2[nH]c(=S)n1Cc1ccco1	inconclusive [inhibitor, partial curve]
CCSc1ncc(Cl)c(C(=O)N(Cc2ccc(N(C)C)cc2)C2CCS(=O)(=O)C2)n1 (configuration not stated)	inconclusive [inhibitor, single point]
CCOc1ncccc1C(=O)OCc1ccc(Cl)cc1	inactive
Cc1c(NS(=O)(=O)c2ccc3c(c2)Cc2ccccc2-3)c(=O)n(-c2ccccc2)n1C	inactive
CCN(CCNCC(O)COCc1ccc(Cl)cc1)c1cccc(C)c1 (configuration not stated)	inconclusive [inhibitor, single point]
COc1ccc(C2/C(=C(\O)c3cc(C)ccc3C)C(=O)C(=O)N2CCN(C)C)cc1OC (configuration not stated)	inconclusive [inhibitor, full curve]
COc1ccc(CSc2nnnn2-c2ccc(C(N)=O)cc2)cc1[N+](=O)[O-]	inactive
Cn1c(N)c(C(=O)COC(=O)c2cc(-c3ccco3)nc3ccccc23)c(=O)n(C)c1=O	inconclusive [inhibitor, partial curve]
Cc1cccc2sc(N(CCN(C)C)C(=O)c3cc(Cl)sc3Cl)nc12	inconclusive [inhibitor, single point]
N#Cc1nc(-c2ccco2)oc1N1CCC(Cc2ccccc2)CC1	inconclusive [inhibitor, partial curve]
COc1ccccc1/C=N/N1CCN(Cc2ccccc2Cl)CC1	active: 15.8 µM
O=C(Cc1ccc(NC(=O)C2CCN(C(=O)C3CCCC3)CC2)cc1)Nc1cccc(C(=O)N2CCCCC2)c1	inconclusive [inhibitor, full curve, poor fit]
CCOC(=O)C1=C(COC(=O)COc2ccc(Br)cc2)NC(=O)NC1C (configuration not stated)	inactive
Cc1ccc(C)c(N2CCN(c3ccc([N+](=O)[O-])cn3)CC2)c1	inactive

Compound	Potency
c1coc(CSSCc2ccco2)c1	inconclusive [inhibitor, single point]
CCNc1nc(SCCOc2ccc(C)cc2)nc(N(C)C)n1	inconclusive [inhibitor, partial curve, poor fit]
CC(C)OC(=O)CCC(=O)Nc1ccc(F)cc1	inactive
O=C(Nc1cccc(Cl)c1N1CCCC1)c1ccc([N+](=O)[O-])o1	inconclusive [inhibitor, full curve, poor fit]
CC(=O)N[C@@H](Cc1ccc(O)cc1)CN1C(N)=NC[C@@H]1CC(C)C	inactive
CCCCCCCCNc1nc(Cl)nc(NCCN2CCOCC2)n1	inactive
CCOc1ccc(Nc2nc(N)nc(CN3CCN(c4ccccc4F)CC3)n2)cc1	inconclusive [inhibitor, full curve]
CC(C)n1c(C(=O)OCC(=O)NCc2ccc3c(c2)OCO3)cc2occc21	inconclusive [inhibitor, single point]
Cc1cccc(N2CCN(Cc3ccc4c(c3)OCO4)CC2)c1C	inconclusive [inhibitor, single point]
COc1ccc(-c2csc3ncnc(N4CCN(c5ccccc5OC)CC4)c23)cc1	inconclusive [inhibitor, partial curve]
COc1ccc(N2CC(NC(=O)N3CCc4ccccc43)CC2=O)cc1OC (configuration not stated)	inactive
Cc1nnc(SCc2ccc(Cl)c(Cl)c2)s1	inactive
Cc1ccc(C)c(CN2C(=O)c3ccccc3S(=O)c3ccc(C(=O)N4CCN(c5ccccn5)CC4)cc32)c1 (configuration not stated)	inconclusive [inhibitor, partial curve]
Cc1ccc(OCC(=O)N2CCN(Cc3cccnc3)CC2)cc1	inconclusive [inhibitor, single point]
O=C(NNc1ccccc1)C(=O)NNc1ccccc1	inconclusive [inhibitor, full curve, poor fit]
COc1ccc(NC(=O)CSc2nnc(-c3ccoc3C)n2CCc2ccccc2)cc1	inconclusive [inhibitor, single point]
O=C(OCc1ccccc1)N1CCC2CC1c1cc(N3Cc4ccccc4-n4nncc4C3)ccc12 (configuration not stated)	inconclusive [inhibitor, partial curve]
Cc1ccccc1Cn1ccc(NC(=O)c2onc(C)c2Cl)n1	inactive
CCNc1nc(Oc2ccc(C(=O)OC)cc2)nc(SC)n1	inconclusive [inhibitor, partial curve]
CCCc1c(O)nc(SCCN(CC)CC)n(C(=O)c2ccccc2)c1=O	inactive
COc1ccccc1N1CCN(CCCCOc2cccc3ccccc23)CC1	inconclusive [inhibitor, partial curve]
CC1=NN(C(C#N)c2ccccc2O)C(C)(C)C1 (configuration not stated)	inconclusive [inhibitor, partial curve, poor fit]
CCN(c1ccc(NC(=O)CSc2ccc3c(c2)OCCO3)cc1)C(C)C	inconclusive [inhibitor, partial curve]
